# Measured values published in the supplement of paper PMC8728848.
# The other results are listed elsewhere or left out.
# B1: Sebin2 (Coprinopsis cinerea), A8PE78 (protein)
# chain: MTTPFYAYCHNVQDDNTWRLGLVFANRSTADEWWRAISEATSSIPITKSITRVTPQYYTHDIRVWNMYNFFVDGNIKSISDKFRGRLFITLEYDRSGRGVSVFPPLHIVDHVSGNWYYIRSKTAPHLFWFYDETRNAIYASKEKRTRFKVSIRNPSPQTPKDAIMINSDDVVIHIKESLYVGVDSYLGHIIPTRAYRTFKFGELEGGAIAGIEVAENAEERCSSTFDGASLYFVGPDSSSPGEPWELV
# Legend:
# Assay in all cases: glycan array binding signal (z-score within array); higher = stronger binding
# Details in all cases: glycan notation: IUPAC condensed, linker removed
# Glc(b1-4)Glc = target: Glc(b1-4)Glc
# Procedure, shortened: (§1)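 Glycan array data came from 3228 arrays in the Consortium for Functional Glycomics database, and only arrays with an available protein sequence were kept. Glycan names were put into IUPAC-condensed notation, and columns mapping to the same glycan were averaged. The binding signal is a within-array Z-score, averaged across arrays of one protein sequence run at different concentrations or buffers and across linkers. A negative Z-score can be read as non-binding.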
# Glc(b1-6)Glc = target: Glc(b1-6)Glc
# Procedure, shortened: as §1
# GlcA(b1-3)Gal = target: GlcA(b1-3)Gal
# Procedure, shortened: as §1
# GlcA(b1-3)GlcNAc = target: GlcA(b1-3)GlcNAc
# Procedure, shortened: as §1
# GlcA(b1-6)Gal = target: GlcA(b1-6)Gal
# Procedure, shortened: as §1
# [1] = target: GlcA3S(b1-3)Gal(b1-4)GlcNAc(b1-2)Man
# Procedure, shortened: as §1
# [2] = target: GlcA3S(b1-3)Gal(b1-4)GlcNAc(b1-3)Gal(b1-4)Glc
# Procedure, shortened: as §1
# [3] = target: GlcNAc(a1-3)Gal(b1-4)GlcNAc
# Procedure, shortened: as §1
# [4] = target: GlcNAc(a1-4)Gal(b1-3)GlcNAc
# Procedure, shortened: as §1
# [5] = target: GlcNAc(a1-4)Gal(b1-4)GalNAc
# Procedure, shortened: as §1
# [6] = target: GlcNAc(a1-4)Gal(b1-4)GlcNAc
# Procedure, shortened: as §1
# [7] = target: GlcNAc(a1-4)Gal(b1-4)GlcNAc(b1-3)Gal(b1-4)Glc
# Procedure, shortened: as §1
# [8] = target: GlcNAc(a1-4)Gal(b1-4)GlcNAc(b1-3)Gal(b1-4)GlcNAc
# Procedure, shortened: as §1
# [9] = target: GlcNAc(a1-4)Gal(b1-4)GlcNAc(b1-3)Gal(b1-4)GlcNAc(b1-3)Gal(b1-4)GlcNAc
# Procedure, shortened: as §1
# [10] = target: GlcNAc(a1-4)Gal(b1-4)GlcNAc(b1-3)Gal(b1-4)[Fuc(a1-3)]GlcNAc(b1-3)Gal(b1-4)[Fuc(a1-3)]GlcNAc
# Procedure, shortened: as §1
# [11] = target: GlcNAc(a1-6)Gal(b1-4)GlcNAc
# Procedure, shortened: as §1
# [12] = target: GlcNAc(b1-2)Gal(b1-3)GalNAc
# Procedure, shortened: as §1
# [13] = target: GlcNAc(b1-2)Man(a1-3)[GlcNAc(b1-2)Man(a1-6)]Man(b1-4)GlcNAc(b1-4)GlcNAc
# Procedure, shortened: as §1
# [14] = target: GlcNAc(b1-2)Man(a1-3)[GlcNAc(b1-2)Man(a1-6)]Man(b1-4)GlcNAc(b1-4)[Fuc(a1-6)]GlcNAc
# Procedure, shortened: as §1
# [15] = target: GlcNAc(b1-2)Man(a1-3)[GlcNAc(b1-4)][GlcNAc(b1-2)Man(a1-6)]Man(b1-4)GlcNAc(b1-4)GlcNAc
# Procedure, shortened: as §1
# [16] = target: GlcNAc(b1-2)Man(a1-3)[GlcNAc(b1-4)][GlcNAc(b1-2)Man(a1-6)]Man(b1-4)GlcNAc(b1-4)[Fuc(a1-6)]GlcNAc
# Procedure, shortened: as §1
# [17] = target: GlcNAc(b1-2)[GlcNAc(b1-4)]Man(a1-3)[GlcNAc(b1-2)Man(a1-6)]Man(b1-4)GlcNAc(b1-4)GlcNAc
# Procedure, shortened: as §1
# [18] = target: GlcNAc(b1-2)[GlcNAc(b1-4)]Man(a1-3)[GlcNAc(b1-4)][GlcNAc(b1-2)Man(a1-6)]Man(b1-4)GlcNAc(b1-4)GlcNAc
# Procedure, shortened: as §1
# [19] = target: GlcNAc(b1-2)[GlcNAc(b1-4)]Man(a1-3)[GlcNAc(b1-4)][GlcNAc(b1-2)[GlcNAc(b1-6)]Man(a1-6)]Man(b1-4)GlcNAc(b1-4)GlcNAc
# Procedure, shortened: as §1
# [20] = target: GlcNAc(b1-2)[GlcNAc(b1-4)]Man(a1-3)[GlcNAc(b1-4)][GlcNAc(b1-2)[GlcNAc(b1-6)]Man(a1-6)]Man(b1-4)GlcNAc(b1-4)[Fuc(a1-6)]GlcNAc
# Procedure, shortened: as §1
# [21] = target: GlcNAc(b1-2)[GlcNAc(b1-6)]Man(a1-6)[GlcNAc(b1-2)Man(a1-3)]Man(b1-4)GlcNAc(b1-4)GlcNAc
# Procedure, shortened: as §1
# [22] = target: GlcNAc(b1-2)[GlcNAc(b1-6)]Man(a1-6)[GlcNAc(b1-2)Man(a1-3)]Man(b1-4)GlcNAc(b1-4)[Fuc(a1-6)]GlcNAc
# Procedure, shortened: as §1
# [23] = target: GlcNAc(b1-2)[GlcNAc(b1-6)]Man(a1-6)[GlcNAc(b1-4)][GlcNAc(b1-2)Man(a1-3)]Man(b1-4)GlcNAc(b1-4)GlcNAc
# Procedure, shortened: as §1
# GlcNAc(b1-3)Fuc = target: GlcNAc(b1-3)Fuc
# Procedure, shortened: as §1
# GlcNAc(b1-3)Gal = target: GlcNAc(b1-3)Gal
# Procedure, shortened: as §1
# [24] = target: GlcNAc(b1-3)Gal(b1-3)GalNAc
# Procedure, shortened: as §1
# GlcNAc(b1-3)Gal(b1-4)Glc = target: GlcNAc(b1-3)Gal(b1-4)Glc
# Procedure, shortened: as §1
# [25] = target: GlcNAc(b1-3)Gal(b1-4)GlcNAc
# Procedure, shortened: as §1
# [26] = target: GlcNAc(b1-3)Gal(b1-4)GlcNAc(b1-2)Man(a1-3)[GlcNAc(b1-3)Gal(b1-4)GlcNAc(b1-2)Man(a1-6)]Man(b1-4)GlcNAc(b1-4)GlcNAc
# Procedure, shortened: as §1
# [27] = target: GlcNAc(b1-3)Gal(b1-4)GlcNAc(b1-2)Man(a1-3)[GlcNAc(b1-3)Gal(b1-4)GlcNAc(b1-2)Man(a1-6)]Man(b1-4)GlcNAc(b1-4)[Fuc(a1-6)]GlcNAc
# Procedure, shortened: as §1
# [28] = target: GlcNAc(b1-3)Gal(b1-4)GlcNAc(b1-2)[GlcNAc(b1-3)Gal(b1-4)GlcNAc(b1-6)]Man(a1-6)[GlcNAc(b1-3)Gal(b1-4)GlcNAc(b1-2)Man(a1-3)]Man(b1-4)GlcNAc(b1-4)GlcNAc
# Procedure, shortened: as §1
# [29] = target: GlcNAc(b1-3)Gal(b1-4)GlcNAc(b1-3)Gal(b1-4)GlcNAc
# Procedure, shortened: as §1
binder,measurement,setting,value
B1,glycan array binding signal (z-score),Glc(b1-4)Glc,-0.378
same,glycan array binding signal (z-score),Glc(b1-6)Glc,-0.314
same,glycan array binding signal (z-score),GlcA(b1-3)Gal,0.175
same,glycan array binding signal (z-score),GlcA(b1-3)GlcNAc,-0.091
same,glycan array binding signal (z-score),GlcA(b1-6)Gal,1.12
same,glycan array binding signal (z-score),[1],0.494
same,glycan array binding signal (z-score),[2],1.64
same,glycan array binding signal (z-score),[3],-0.472
same,glycan array binding signal (z-score),[4],-0.251
same,glycan array binding signal (z-score),[5],-0.031
same,glycan array binding signal (z-score),[6],-0.04
same,glycan array binding signal (z-score),[7],-0.066
same,glycan array binding signal (z-score),[8],-0.047
same,glycan array binding signal (z-score),[9],-0.357
same,glycan array binding signal (z-score),[10],0.592
same,glycan array binding signal (z-score),[11],-0.158
same,glycan array binding signal (z-score),[12],-0.059
same,glycan array binding signal (z-score),[13],-0.047
same,glycan array binding signal (z-score),[14],-0.213
same,glycan array binding signal (z-score),[15],0.043
same,glycan array binding signal (z-score),[16],-0.505
same,glycan array binding signal (z-score),[17],-0.106
same,glycan array binding signal (z-score),[18],2.76
same,glycan array binding signal (z-score),[19],-0.16
same,glycan array binding signal (z-score),[20],-0.211
same,glycan array binding signal (z-score),[21],0.031
same,glycan array binding signal (z-score),[22],-0.115
same,glycan array binding signal (z-score),[23],-0.308
same,glycan array binding signal (z-score),GlcNAc(b1-3)Fuc,-0.007
same,glycan array binding signal (z-score),GlcNAc(b1-3)Gal,-0.7
same,glycan array binding signal (z-score),[24],-0.073
same,glycan array binding signal (z-score),GlcNAc(b1-3)Gal(b1-4)Glc,-0.04
same,glycan array binding signal (z-score),[25],-0.287
same,glycan array binding signal (z-score),[26],-0.256
same,glycan array binding signal (z-score),[27],0.001
same,glycan array binding signal (z-score),[28],-0.571
same,glycan array binding signal (z-score),[29],-0.385
